According to publication PMC6919601, “Identification of Plasmodium dipeptidyl aminopeptidase allosteric inhibitors by high throughput screening” (PLoS ONE, 2019):
Where “and” joins values, the source holds several entries; their conditions need not be identical. Equal entries are not always repeated. Hit rate of the full screen: of about 110,000 compounds, about 230 (0.21%) showed an effect of 50% or more. Some of the results follow. Where a SMILES comes first, the peptide text is derived from it.

Biological target: DPAP1 (Plasmodium falciparum, UniProt Q8IIJ9)
Assay: primary screen, percent inhibition; read by cleavage of a fluorogenic dipeptide substrate; higher = more effect of the substance
Parameters: species or system P. falciparum D10 trophozoite lysates; single well
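Also: 30 min substrate incubation versus DMSO and 10 µM JCP410 controls.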

Chain of DPAP1 (Q8IIJ9 whole entry, looked up): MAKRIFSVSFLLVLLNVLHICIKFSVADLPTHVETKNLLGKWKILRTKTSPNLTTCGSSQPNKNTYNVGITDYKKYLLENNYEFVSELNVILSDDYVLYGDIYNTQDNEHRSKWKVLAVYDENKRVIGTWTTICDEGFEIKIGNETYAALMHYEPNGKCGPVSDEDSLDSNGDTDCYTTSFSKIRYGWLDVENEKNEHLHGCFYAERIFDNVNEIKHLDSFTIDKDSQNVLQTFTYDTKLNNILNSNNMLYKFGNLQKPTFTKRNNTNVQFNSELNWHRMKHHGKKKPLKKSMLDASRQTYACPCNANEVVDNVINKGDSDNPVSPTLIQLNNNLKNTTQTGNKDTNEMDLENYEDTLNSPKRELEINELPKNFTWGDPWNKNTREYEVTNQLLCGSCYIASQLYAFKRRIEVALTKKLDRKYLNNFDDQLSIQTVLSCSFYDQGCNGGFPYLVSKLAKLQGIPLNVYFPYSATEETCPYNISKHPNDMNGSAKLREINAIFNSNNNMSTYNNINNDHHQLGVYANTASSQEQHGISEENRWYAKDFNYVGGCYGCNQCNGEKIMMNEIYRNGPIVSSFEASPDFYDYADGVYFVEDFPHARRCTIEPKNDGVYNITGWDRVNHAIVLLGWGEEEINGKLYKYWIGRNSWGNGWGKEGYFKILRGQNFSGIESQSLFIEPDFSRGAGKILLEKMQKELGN

Compared with `CCC(C)NC(=O)c1cnn2c(C(F)(F)F)cc(-c3ccc4c(c3)OCO4)nc12` (stereo not drawn), `O=C(c1nn2c(C(F)(F)F)cc(-c3cccs3)nc2c1Cl)N1CCCCC1` is higher in “% Inhibition @ 10 uM” value: -4.72% for the first, 1.4% for the second.

First: O=C(NCc1ccccc1)c1ccc(Br)o1
Second: Cc1ccc(CNC(=O)c2nn(C)c3c2CSc2ccccc2-3)cc1
The “% Inhibition @ 10 uM” value of the first is lower: -2.03% for the first, 51.6% for the second.

Compared with `COc1ccc(Cn2c(C(=O)O)c(CNCc3ccccc3OC)c3ccc(C)cc32)cc1`, `COc1ccccc1CNCc1c(C(=O)O)c(C)n(Cc2ccccc2C)c1C` is higher in “% Inhibition @ 10 uM” value: -6.62% for the first, 4.53% for the second.

Going from `COC(=O)c1ccccc1NC(=O)c1ccc(Cl)cc1Cl` to `COc1cccc(C(=O)Nc2ccccc2O)c1OC`, the “% Inhibition @ 10 uM” value rises from 0.827% to 2.64%.

Compared with `CC(C)(C)c1ccc(C(=O)N2CCN(C/C=C/c3ccccc3)CC2)cc1`, `O=S(=O)(c1ccccc1)N1CCN(C/C=C/c2ccccc2)CC1` is higher in “% Inhibition @ 10 uM” value: -6.7% for the first, -1.07% for the second.

Going from `N#C/C(=C\c1c(Oc2ccccc2)nc2ccccn2c1=O)c1nc2ccccc2s1` to `O=C(OCc1ccccc1)c1ccc(Oc2nnnn2-c2ccccc2)cc1`, the “% Inhibition @ 10 uM” value rises from -31.5% to 0.776%.

Compared with `Cc1cccc(C)c1NC(=O)c1cccc(Br)c1`, `Cc1ccccc1NC(=O)c1cccc(NC(=O)CCC(=O)O)c1` is higher in “% Inhibition @ 10 uM” value: -5.65% for the first, 3.86% for the second.

Compared with `COCCOC(=O)c1c(N)sc2c1CCCC2`, `CCOC(=O)c1[nH]c(C)c(C(=O)NCCC2=CCCCC2)c1C` is lower in “% Inhibition @ 10 uM” value: 0.968% for the first, -1.66% for the second.

Going from `CCCSC1=C(C#N)C(c2cc(OC)ccc2OC)CC(=O)N1` (stereo not drawn) to `COc1ccc(OC)c(C2CC(=O)N=C(NC(=O)c3ccc(C)cc3)N2)c1` (stereo not drawn), the “% Inhibition @ 10 uM” value falls from 2.36% to 0.331%.

Compared with `CCOc1ccccc1C(=O)Nc1nc2ccc(S(N)(=O)=O)cc2s1`, `COc1ccc(OCC(=O)Nc2nc3ccccc3s2)cc1` is higher in “% Inhibition @ 10 uM” value: -7.35% for the first, -1.57% for the second.

Going from `Cc1cccnc1NS(=O)(=O)c1cc(Cl)ccc1Cl` to `COc1ccc(C(C)C)cc1S(=O)(=O)Nc1ccccn1`, the “% Inhibition @ 10 uM” value falls from -1.56% to -3.01%.

Going from `O=C(Cn1cnc2c(nnn2Cc2ccccc2F)c1=O)c1ccc(Cl)cc1` to `O=C(COc1ccc(Cl)cc1)Nc1ccccc1NC(=O)COc1ccc(Cl)cc1`, the “% Inhibition @ 10 uM” value rises from -3.94% to -1.38%.

Going from `CN(c1ccc2cccc(O)c2n1)c1ccc2cccc(O)c2n1` to `O=C(O)c1cccc(N2C(=O)C(O)=C(c3ccccc3)C2C(=O)c2ccc(Br)cc2)c1` (stereo not drawn), the “% Inhibition @ 10 uM” value falls from 4.88% to 1.34%.

Going from `O=C(Nc1ccc(Br)cn1)c1cc(Br)ccc1Cl` to `COc1ccc(NC(=O)c2ccoc2C)cc1OC`, the “% Inhibition @ 10 uM” value falls from -0.769% to -4.71%.

Compared with `Cc1occc1-c1nnc(SCC(=O)c2ccc3c(c2)OCO3)n1-c1ccccc1`, `COC(=O)c1cc(CSc2nnc(-c3ccccc3)n2-c2ccccc2)oc1C` is lower in “% Inhibition @ 10 uM” value: 3.68% for the first, -6.65% for the second.

Going from `CCc1c(O)n(C(C)CC)c(=S)[nH]c1=O` (stereo not drawn) to `Cc1ccc(C(C)C)c(OCC(=O)Nc2ccc(F)cc2)c1`, the “% Inhibition @ 10 uM” value falls from 3.85% to -1.98%.

Going from `O=C(c1ccc(CNc2c(NC3CCCCC3)c(=O)c2=O)cc1)N1CCCC1` to `Cc1cc(C)c2c(n1)SCC(=O)N2Cc1ccc(C(=O)NC2CCCCCC2)cc1`, the “% Inhibition @ 10 uM” value rises from -4.26% to 1.14%.

Compared with `CC(C)(C)c1ccc(OCCCCN2CCOCC2)cc1`, `Clc1ccc(-n2ncc3c(NCCCN4CCOCC4)ncnc32)cc1` is lower in “% Inhibition @ 10 uM” value: -2.12% for the first, -2.84% for the second.

Going from `O=S1(=O)N=C(NCCOCc2ccc(Cl)cc2)c2ccccc21` to `Cc1sc(-n2cccc2)c(C(=O)NCc2ccc(Cl)cc2)c1C`, the “% Inhibition @ 10 uM” value rises from -1.82% to 4.84%.

Compared with `COc1cccc(CNC(=O)Cn2nc(C)n3cccc3c2=O)c1OC`, `COc1cccc2c1cc1c(=O)n(CC(=O)N3CCC(N4CCCCC4)CC3)nc(C)n12` is higher in “% Inhibition @ 10 uM” value: -0.385% for the first, 1.68% for the second.

Going from `COCCCNc1nc2c(c(=O)n(C)c(=O)n2C)n1Cc1ccccc1Br` to `COCCNC(=O)CSc1nc2ccccc2c2nc(CCn3nc(C)cc3C)nn12`, the “% Inhibition @ 10 uM” value falls from 6% to 0.569%.

First: CC1CCCN(C(=O)/C(=C/c2cccc(F)c2)NC(=O)c2ccccc2Br)C1 (stereo not drawn)
Second: Oc1ccc(CN2CCN(c3ccccc3F)CC2)cc1
The “% Inhibition @ 10 uM” value of the first is higher: -2.53% for the first, -2.7% for the second.

Compared with `N#Cc1ccc(-c2cccnc2)nc1S`, `N#CCc1ccc(NC(=O)c2cccnc2)cc1` is lower in “% Inhibition @ 10 uM” value: 35.2% for the first, 1.93% for the second.

Going from `COc1ccc(N(C(C)C(=O)Nc2cccc(Cl)c2)S(C)(=O)=O)cc1` (stereo not drawn) to `COc1ccc(OC)c(NC(=O)CN(c2ccccc2F)S(C)(=O)=O)c1`, the “% Inhibition @ 10 uM” value falls from 3.17% to -1.43%.

Going from `CC(C)(CNC(=O)c1ccc(F)cc1)CNC(=O)c1ccc(F)cc1` to `CCCOc1ccc(C(=O)O/N=C(\N)c2ccc(Br)cc2)cc1`, the “% Inhibition @ 10 uM” value rises from -7.08% to 2.5%.

First: COc1ccccc1-c1cc(C(=O)N2C(C)CCCC2C)no1 (stereo not drawn)
Second: COc1ccc(-n2cnc3cc(C(=O)NC4CCCCC4C)ccc32)cc1 (stereo not drawn)
The “% Inhibition @ 10 uM” value of the first is lower: 0.0654% for the first, 2.8% for the second.

Going from `CC1CCCCC1NC(=O)C1C2CCC(C2)C1C(=O)O` (stereo not drawn) to `CN(CC(=O)NC1CCCCCC1)S(=O)(=O)c1c[nH]cn1`, the “% Inhibition @ 10 uM” value rises from -1.11% to 3.24%.

Going from `Cc1ccc2c(cnn2C(=O)CCCC(=O)NCCCN2CCN(C)CC2)c1` to `CCCCNC(=O)CNC(=O)CNS(=O)(=O)c1ccc(C)cc1` (HELM PEPTIDE1{[Cc1ccc(S(=O)(=O)[*:2])cc1].G.G.[CCCCN[*:1]]}$$$$V2.0), the “% Inhibition @ 10 uM” value rises from 0.623% to 1.76%.

First: CC(C)NCCc1c[nH]c2ccccc12
Second: NS(=O)(=O)c1cc(O)c2ccccc2c1
The “% Inhibition @ 10 uM” value of the first is lower: 1.13% for the first, 3.06% for the second.

First: COc1ccc(-c2nc(N)n(C(=O)c3ccc(C)cc3)n2)cc1
Second: CCOc1ccc(-n2c(SCC(=O)NCc3ccc(C)cc3)nc3nnc(C)c-3c2N)cc1
The “% Inhibition @ 10 uM” value of the first is lower: -4.77% for the first, -0.458% for the second.

Compared with `COc1ccc(C2CC(c3ccc(OC)cc3OC)n3ncnc3N2)cc1` (stereo not drawn), `COc1cc(C(=O)NCc2ccc(F)cc2)cc(OC)c1OC` is higher in “% Inhibition @ 10 uM” value: 0.0842% for the first, 0.316% for the second.

Compared with `CC1CC2=C(CC1/C=N/NC(N)=S)C(C)(C)CCC2` (stereo not drawn), `CCN1CCCC(NC(=O)c2scc3c2CCCC3)C1` (stereo not drawn) is lower in “% Inhibition @ 10 uM” value: 0.275% for the first, -1.57% for the second.

Compared with `C=CCOc1c(Br)cc(C2C(C#N)=C(N)Oc3cc4c(cc32)OCO4)cc1OC` (stereo not drawn), `COc1cc(CCC(=O)NCc2ccc3c(c2)OCO3)cc(OC)c1OC` is lower in “% Inhibition @ 10 uM” value: 0.851% for the first, -6.91% for the second.

Going from `Cc1nc2ccc(S(=O)(=O)N(CC(=O)NCc3ccccn3)Cc3ccccc3)cc2s1` to `O=C(NCc1ccc2c(c1)OCO2)c1cc(O)nc2ccc(S(=O)(=O)N3CCCCCC3)cc12`, the “% Inhibition @ 10 uM” value rises from -1.56% to 5.7%.

Compared with `Nc1c(C(=O)Nc2ccc(Cl)cc2)sc2nc3c(cc12)CCCC3`, `O=C(Nc1ccc(Cl)cc1)C1CC(=O)N(c2ccc(Cl)cc2)C1` (stereo not drawn) is lower in “% Inhibition @ 10 uM” value: 0.931% for the first, -0.28% for the second.

Going from `O=[N+]([O-])c1ccc(-c2nc(-c3ccc(Cl)cc3)no2)cc1` to `Cc1ccc(N2C(=O)CC(NCc3ccc(F)cc3)C2=O)cc1` (stereo not drawn), the “% Inhibition @ 10 uM” value rises from -0.591% to 11.9%.

First: CC(C)(C)c1ccc(CN2C(=O)COc3cccnc32)cc1
Second: Cc1ccc(NC(=O)CN2C(=O)c3ccccc3C2=O)cc1
The “% Inhibition @ 10 uM” value of the first is lower: 7.74% for the first, 9.02% for the second.

Compared with `O=C(CSc1nc2c(c(C(F)(F)F)n1)CCc1ccccc1-2)Nc1cccnc1`, `N#CC1=C(N)Oc2c(c(=O)oc3ccccc23)C1c1ccc(C(F)(F)F)cc1` (stereo not drawn) is higher in “% Inhibition @ 10 uM” value: -1.72% for the first, 7.55% for the second.

Compared with `O=C(O)C12CC3CC(C1)CC(n1ncc(NCCC4=CCCCC4)c(Cl)c1=O)(C3)C2`, `O=C(CN1C(=O)c2cccc3cccc1c23)NCCSC1CCCCC1` is higher in “% Inhibition @ 10 uM” value: -4.66% for the first, -4.16% for the second.

Compared with `COc1ccccc1NC(=O)COc1cc(Cl)c(Cl)cc1Cl`, `COc1ccc(C2OC(=O)CC2C(=O)NCc2ccccc2Cl)cc1OC` (stereo not drawn) is lower in “% Inhibition @ 10 uM” value: 3.58% for the first, -2.14% for the second.

Compared with `N/C(=N\N=C\c1ccco1)c1nonc1N`, `CCOc1ccc(NC(=O)c2ccco2)cc1` is lower in “% Inhibition @ 10 uM” value: 3.54% for the first, -3.26% for the second.

Going from `CCOCCCNCc1cc(OC)ccc1OC` to `CCCOc1ccc(C2C3=C(CCCC3=O)OC3=C2C(=O)CCC3)cc1OCC`, the “% Inhibition @ 10 uM” value falls from 0.387% to -3.41%.

Compared with `COc1cccc(/C=c2\sc3nc(=O)c(-c4ccccc4)nn3c2=O)c1OC`, `CSc1sc(C(C)=O)c(N)c1S(=O)(=O)c1ccccc1` is higher in “% Inhibition @ 10 uM” value: -5.2% for the first, 4.28% for the second.

Compared with `COCCNC(=O)c1cnn(-c2ccccc2)c1-n1cccc1`, `CCN(CC)CCNC(=O)/C(=C/c1cn(CC)c2ccccc12)NC(=O)c1ccco1` is higher in “% Inhibition @ 10 uM” value: -5.19% for the first, -0.0235% for the second.

Compared with `c1ccc(C2=NN3C(C2)c2ccccc2OC3c2ccc3c(c2)OCO3)cc1` (stereo not drawn), `Cc1ccsc1CN(Cc1ccco1)C(=O)c1ccc(Br)cc1` is lower in “% Inhibition @ 10 uM” value: -3.41% for the first, -4.67% for the second.

First: CN1CCN(C2CC(=O)N(c3ccccc3)C2=O)CC1 (stereo not drawn)
Second: CCOC(=O)N1CCN(C(=O)Cn2cnc3c(nnn3-c3cccc(OC)c3)c2=O)CC1
The “% Inhibition @ 10 uM” value of the first is higher: 2.54% for the first, -2.16% for the second.

Compared with `N#Cc1c(S)nc2c(c1-c1ccco1)CCCC2`, `COC(=O)c1ccc(CSc2nc3ccncc3n2CC(=O)N2CCCC2)cc1` is lower in “% Inhibition @ 10 uM” value: 11.3% for the first, 4.83% for the second.

First: COc1cc2c(cc1OC)C(c1ccc(C(F)(F)F)cc1)CC(=O)N2 (stereo not drawn)
Second: COc1cc(CN2CCN(Cc3ccccn3)CC2)cc(OC)c1OC
The “% Inhibition @ 10 uM” value of the first is higher: 3.57% for the first, 2.54% for the second.

Going from `COCCCN1C(=O)c2ccc(C(=O)O)cc2C1=O` to `CCOC(=O)/C(C#N)=C\c1ccc(Cl)cc1Cl`, the “% Inhibition @ 10 uM” value falls from -1.03% to -2.87%.

First: CCC1CCC(N(CC)CCN(C)C)CC1 (stereo not drawn)
Second: CCN1CCN(C(=O)C2CCN(c3nc4c(C)cc(C)cc4s3)CC2)CC1
The “% Inhibition @ 10 uM” value of the first is higher: -0.0494% for the first, -5.19% for the second.

With `O=C(O)CNS(=O)(=O)c1ccccc1` the “% Inhibition @ 10 uM” value was 1.66%.

For `O=S(=O)(c1ccc(Br)cc1)N1CCN(C/C=C/c2ccccc2)CC1`, the “% Inhibition @ 10 uM” value was 3.9% and 1.52%.
